Results on one compound are retold here after paper PMC6753081 (Nature Communications, 2019).

In the assay the target is T1, A. fumigatus CN/FKBP12 complex (CnA/CnB/AfFKBP12) (Aspergillus fumigatus, UniProt Q4WDF2+Q4WLV6+Q4WUR1).
T1 construct: gene cnaA
Put plainly: complex formation on recombinant expression. It counts as binding. The note with it: ternary complex formed in presence of compound; not crystallized.

Take `C=CC[C@@H]1/C=C(\C)C[C@H](C)C[C@H](OC)[C@H]2O[C@@](O)(C(=O)C(=O)N3CCCC[C@H]3C(=O)O[C@H](/C(C)=C/[C@@H]3CC[C@@H](O)[C@H](OC)C3)[C@H](C)[C@@H](O)C/C1=N/NC(C)=O)[C@H](C)C[C@@H]2OC` [APX879]: the “complex formation on recombinant expression” value is “complex formation between A. fumigatus CN and FKBP12 in the presence of APX879”.
